Assay results published in a compilation of properties of binary mixtures (doi:10.1007/s10973-015-5205-9).
Some of these densities may be calculated back from excess volumes.

Test: xn = mol fraction of the nth substance listed
Settings: 100 kPa

CC[n+]1ccn(C)c1.F[B-](F)(F)F + CCOCCO
x2 = 0
Settings	mass density [kg/m3]
298.15 K	1277.6
318.15 K	1262.1
328.15 K	1254.6

CCOCCO + CC[n+]1ccn(C)c1.F[B-](F)(F)F
mass density [kg/m3]
Settings	298.15 K	308.15 K	318.15 K	328.15 K
x1 = 0.0466	1267.2	1259.5	1251.7	1244.4
x1 = 0.0981	1255.7	1248	1240.1	1232.9
x1 = 0.1487	–	1236.4	1228.5	1221.4
x1 = 0.1973	1232.8	1225.1	–	1210
x1 = 0.3049	1206.4	1198.6	–	1183.2
x1 = 0.4112	1177.6	1169.7	1161.7	1154
x1 = 0.4953	1152.4	–	1136.3	1128.2
x1 = 0.5705	1127.5	1119.4	1111.2	–
x1 = 0.696	1080.2	1071.9	1063.5	1055
x1 = 0.7952	1036.7	1028.2	–	1011.3
x1 = 0.8411	1014.6	1006	997.3	–
x1 = 0.8698	1000	–	982.6	974.5
x1 = 0.9487	957	948.1	939.1	931.6
x1 = 1	925.6	916.5	907.3	898.4
